# Results taken from PubChem BioAssay AID1240 (Sanford-Burnham Center for Chemical Genomics, 2008).
# In all, about 50,000 compounds went through this assay and about 800 (1.6%) showed an effect of 50% or more. The list shows a part of the results.
# Biological target: Bcl-2-like protein 10 (Homo sapiens) (UniProt Q9HD36)
# Assay: TR3 peptide-Bcl-B binding displacers, biochemical primary FP assay, phenotype converters (AID 1240);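 also: 0% = Bcl-B with tracer peptide and DMSO and 100% = tracer peptide lacking Bcl-B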
# Conditions: GST-Bcl-B / FITC-TR3 peptide fluorescence polarization; stronger effect = higher value; compound at 3.75 mg/L
# UniProt Q9HD36, sequence (Q9HD36 whole entry, looked up): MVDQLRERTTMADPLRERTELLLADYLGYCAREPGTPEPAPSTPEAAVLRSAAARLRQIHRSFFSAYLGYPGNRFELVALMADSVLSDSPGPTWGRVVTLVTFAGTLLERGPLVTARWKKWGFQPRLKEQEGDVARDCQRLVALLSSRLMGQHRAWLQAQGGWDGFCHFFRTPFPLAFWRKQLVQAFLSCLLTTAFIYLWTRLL
row,Compound,displacement
1,Cc1nn(C(c2ccccc2)C(O)(c2ccccc2)c2ccccc2)c(C)c1Br (centres undefined),-7%
2,Cc1ccc(S(=O)(=O)/N=C(/NC(=S)N2CCOCC2)c2ccccc2)cc1,-5.4%
3,COc1ccc(N(CC(=O)Nc2cc(C)cc(C)c2)S(C)(=O)=O)cc1Cl,-0.1%
4,COc1ccc(S(=O)(=O)N2CCN(Cc3ccc4c(c3)OCO4)CC2)cc1,-9.4%
5,Clc1ccccc1CN1CCN(C2CCN(Cc3ccccc3)CC2)CC1,-19.8%
6,CCOC(=O)N1CCN(C(c2ccccc2)c2ccccc2)CC1,9.4%
7,CC1(C)CC(=O)C(/C=N/C(N)=O)=C(O)C1,2.4%
8,CCc1c(C)nc(N)nc1N1CCCC1,13.1%
9,COc1ccccc1C/C(N)=N/OC(=O)c1ccc(Br)cc1,-0.6%
10,N/C(=N\OC(=O)c1cccc(Br)c1)c1ccncc1,9.4%
11,O=C(CSc1n[nH]c(=O)[nH]c1=O)N/N=C/c1ccccc1,-8.9%
12,CN(CCS(=O)(=O)OCC(F)(F)F)c1ccc(C=O)cc1,11.9%
13,COc1ccccc1CN/C(C)=C(\C#N)C(N)=O,-0.6%
14,Cc1nn(S(=O)(=O)c2ccccc2[N+](=O)[O-])c(C)c1Sc1ccccc1,-9.1%
15,O=C(c1cccnc1)N1N=C(C(F)(F)F)CC1(O)c1ccc(Cl)cc1 (centres undefined),11.5%
16,Fc1ccccc1OCCSc1nc2ccc(Br)cc2[nH]1,-2.9%
17,CCOc1cc(/C=N/n2cnnc2)cc(Cl)c1O,-17.7%
18,CCc1ccc(C(=O)CC2(O)C(=O)Nc3ccc(Br)cc32)cc1 (centres undefined),2.3%
19,COC(=O)Nc1c(-c2ccccc2)nc2ccc(Cl)cn12,9.7%
20,O=C(NC1CCCCC1)c1cccc(S(=O)(=O)N2CCOCC2)c1,6.5%
21,O=C(NC(NC(=S)Nc1c(Cl)cccc1Cl)C(Cl)(Cl)Cl)c1cccc([N+](=O)[O-])c1 (centres undefined),-5.8%
22,COc1ccc(NC(=O)CN(c2ccc(Br)cc2)S(C)(=O)=O)cc1,4.4%

row,Compound,displacement
1,O=C1/C(=C\c2ccc(C(F)(F)F)cc2)SC(=S)N1c1ccccc1,13.6%
2,CCOc1ccc(-c2nn(-c3ccccc3)cc2C2C(C(=O)OC)=C(C)NC(C)=C2C(=O)OC)cc1[N+](=O)[O-],8.8%
3,Cc1ccc(O)c(NC(=O)c2ccc(N3C(=O)c4ccc([N+](=O)[O-])cc4C3=O)cc2)c1,-0.6%
4,COC(=O)COc1cc(Br)c(/C=C2\C(=O)NC(=O)N(c3cc(C)cc(C)c3)C2=O)cc1OC,0%
5,CCCCOc1ccc(C2NC(=O)NC(C)=C2C(=O)OCC)cc1 (centres undefined),14.2%
6,COc1ccccc1OCCNc1cc(Cl)ccc1[N+](=O)[O-],14.5%
7,COc1cccc(OC)c1C(=O)Nc1cccc(C(=O)Nc2ccccc2C(=O)O)c1,-7.8%
8,O=C(N/N=C/C=C/c1ccccc1)c1cc(-c2ccccc2)n[nH]1,0.7%
9,CCOc1cc(/C=C2\SC(=S)NC2=O)ccc1OCc1ccccc1,5.4%
10,Cc1cc(/C=C2/NC(=O)NC2=O)c(C)n1-c1cccc(Cl)c1,10%
11,CCOC(=O)C1=C(C)N=c2s/c(=C\c3ccc(C(=O)O)cc3)c(=O)n2C1c1ccc(OC)cc1 (centres undefined),4.4%
12,O=C1CC(NC2CCCCC2)C(=O)N1c1ccc(Br)cc1 (centres undefined),-0.5%
13,Ic1ccc(OCCCCN2CCOCC2)cc1,8.5%
14,O=c1/c(=C/c2ccc(OCCOc3ccc(Br)cc3)cc2)sc2nc3ccccc3n12,-5.4%
15,CCc1ccccc1OCCCN(CC)CC,8.2%
16,O=c1oc(-c2ccccc2)nc2sc3c(c12)CCCCC3,5.1%
17,COc1ccccc1C1C(C(=O)/C=C/c2ccccc2)=C(O)C(=O)N1CCCCCC(=O)O (centres undefined),4%
18,Cc1nnc(NC(=O)c2cccc(C(=O)O)c2)s1,-3.4%
19,CC(C)(C)C1(C)OC(O)(C(Cl)(Cl)Cl)CC1=O (centres undefined),-5.1%
20,CC(=C/c1ccc(C(C)C)cc1)/C=N/NC(=O)c1cccc(N2CCCC2=O)c1,-4.2%
21,O=C(O)/C=C/C(=O)Nc1ccc(NC(=O)c2ccccc2)c(Cl)c1,-2%
22,N#Cc1ccccc1Sc1ccccc1C(=O)N1CCOCC1,-6%

row,Compound,displacement
1,COc1ccc(NC(=O)C(=O)NCc2ccccc2)cc1Cl,12%
2,Cc1ccc(NC(=O)OCC(F)(F)C(F)F)cc1Cl,6.7%
3,CC(C)C(=O)NS(=O)(=O)c1ccc(NC(=O)C(F)(F)F)cc1,11%
4,O=[N+]([O-])c1ccc(C2SCCN2S(=O)(=O)c2ccc3cccc4c3c2CC4)cc1 (centres undefined),-1.4%
5,O=C1c2cc(S(=O)(=O)Nc3ccc(F)cc3)ccc2-c2ccc(S(=O)(=O)Nc3ccc(F)cc3)cc21,8.5%
6,CC(C)N(C(=O)Cn1c(CCCO)nc2ccccc21)c1ccccc1,-8.4%
7,COc1ccc(-c2nnc(NC(=O)c3ccc(Cl)cc3Cl)s2)cc1,3.2%
8,CCOC(=O)C1(C)C=C(Nc2ccc(C)cc2)C(=O)N1c1ccc(C)cc1 (centres undefined),-1.6%
9,Cc1cc(C)cc(NC(=O)CN(c2ccccc2)S(C)(=O)=O)c1,-12%
10,CC1CCOP(=O)(C(Nc2cc(Cl)cc(Cl)c2)c2ccc(Br)cc2)O1 (centres undefined),-4%
11,CCOC(=O)c1c(NC(C)=O)sc2c1CCC(C)C2 (centres undefined),-9.1%
12,CC(C)c1ccc(OCC(=O)Nc2ncc(S(=O)(=O)c3ccc([N+](=O)[O-])cc3)s2)cc1,4.6%
13,O=C1NC(=S)S/C1=C\c1ccc(N2CCCCC2)c([N+](=O)[O-])c1,34.6%
14,Cc1ccc2nsnc2c1NC(=O)COc1ccccc1[N+](=O)[O-],-0.3%
15,CCOc1ccccc1NC(=O)C(=O)NCCC1=CCCCC1,-10.3%
16,CC(=O)c1cccc(NC(=S)Nc2ccccc2)c1,-10.1%
17,Cc1ccc(N2C(=O)CC(Sc3ccccc3C(=O)O)C2=O)c([N+](=O)[O-])c1 (centres undefined),-15%
18,CCOc1ccccc1OCCN1CCOCC1,-4.9%
19,COc1ccc(C(=O)Nc2ccc(NC(=O)c3ccco3)c(OC)c2)cc1Cl,20.4%
20,CC1=C(C(=O)OCCOc2ccccc2)C(c2ccccc2[N+](=O)[O-])C2=C(CCCC2=O)N1 (centres undefined),-3.8%
21,Cc1ccc(N(CC(=O)NCc2ccncc2)S(=O)(=O)c2ccc(F)cc2)cc1,0.9%
22,Cc1onc(-c2ccccc2)c1C(=O)N1CCN(c2ccc(Cl)cc2)CC1,-5.1%

row,Compound,displacement
1,O=C(CSc1ncc(-c2ccccc2)[nH]1)NCCOc1ccccc1,29.8%
2,COC(=O)c1cc(NC(=O)c2cccc(Cl)c2Cl)cc(C(=O)OC)c1,12.6%
3,O=C(COc1cccc(Cl)c1)N/N=C\c1cccnc1,6.5%
4,O=C(NC(=S)Nc1ccc2oc(-c3ccccc3)nc2c1)c1ccccc1,-10.6%
5,O=C1c2cccc3cccc(c23)C(=O)N1c1ccc2c(c1)OCO2,0.6%
6,C/C(=N/n1cnnc1)c1ccc(NS(=O)(=O)c2ccc(Br)cc2)cc1,1.6%
7,COc1ccc(-c2cc(C(=O)NCc3ccco3)c3ccccc3n2)cc1,-0.3%
8,O=C(N/N=C/c1ccc[nH]1)c1cccc(Cl)c1,-6.5%
9,CCOc1ccccc1N1CCN(C(=O)COc2ccc(Cl)cc2C)CC1,-8.1%
10,COC1=C(C(C)(C)C)C(=O)C(=O)C(C(C)(C)C)=C1OC,1%
11,CCOc1cc(/C=C2\C(=O)NC(C)=C2C(=O)OC)ccc1O,13.6%
12,COc1ccccc1/C=C1\C=C(c2ccc(Cl)cc2)OC1=O,9.6%
13,CCOC(=O)C1=C(C)N=c2s/c(=C\c3ccc(Br)o3)c(=O)n2C1c1cccc(OC)c1 (centres undefined),10.7%
14,CC(C)(C)c1nnc(NC(=S)Nc2ccccc2)s1,-7.2%
15,CCCOC(=O)c1ccc(NC(=O)c2cccc(OCc3ccccc3)c2)cc1,-3.3%
16,CCOC(=O)c1c(CC(C)C)csc1NC(=O)c1ccccc1Cl,-2.4%
17,COc1ccc(-c2nc(-c3ccc(OC)c(OC)c3)no2)cc1,29.1%
18,O=S(=O)(CCc1nc2ccccc2s1)c1ccc(Cl)cc1,0.3%
19,CCOC(=O)C(=CNc1ccc2c(c1)OCO2)C(=O)OCC,1.4%
20,OC(CNc1ccc(F)cc1)COc1ccc(OCC(O)CNc2ccc(F)cc2)cc1 (centres undefined),8.5%
21,O=C(O)c1ccc(N2C(=O)CC(N3CCC(C(=O)O)CC3)C2=O)cc1 (centres undefined),3.9%
22,O=C(COc1ccc(Br)cc1)Nc1ccc(N2CCCCC2)c(Cl)c1,7.3%

row,Compound,displacement
1,CCNC(=O)CC1S/C(=N\N=C2/CCCc3ccccc32)NC1=O (centres undefined),-8.7%
2,CCCCN(CCCC)C(=O)c1ccc(Cl)c([N+](=O)[O-])c1,-4.1%
3,COc1ccc(C=Nc2ccc(Sc3ccc([N+](=O)[O-])cc3)cc2)cc1OC,-4.2%
4,Cc1ccc(C2CC(C(F)(F)F)n3nc(C(=O)Nc4c(C)n(C)n(-c5ccccc5)c4=O)c(Cl)c3N2)cc1 (centres undefined),1.1%
5,Cc1cccc(/C=C2/SC(=S)N(Cc3ccccc3)C2=O)c1,13.4%
6,O=S(=O)(Cc1ccccc1)NCC1CCCO1 (centres undefined),5.8%
7,O=C(N/N=C/c1ccccc1F)c1cc(Br)ccc1O,9.1%
8,Cc1ccc(NC(=S)N/N=C2\CC(=O)CC(C)(C)C2)cc1,7.7%
9,CCOc1ccc(N(CC(=O)NCCOC)S(=O)(=O)c2ccc(Br)cc2)cc1,2.5%
10,Cc1cc(NCCN2CCOCC2)n2c(nc3ccccc32)c1C#N,-13.4%
11,CCCN=C(CCC)C1=C(O)C(C(=O)OC)C(C)(C)CC1=O (centres undefined),7.2%
12,CCOc1ccc(/C=C(/C#N)C(=O)Nc2cccc(Br)c2)cc1OCC,10.4%
13,CCC(=O)N1CCN(c2ccc([N+](=O)[O-])cc2)CC1,13.4%
14,CC(=O)Nc1ccc(I)cc1C,-5%
15,NC(=O)SCC(=O)Nc1cccc(O)c1,5.1%
16,COc1cccc(NC(=O)CCCN2C(=O)c3cccc4cccc(c34)C2=O)c1,6.9%
17,O=C(N/N=C/c1ccc(-c2ccccc2[N+](=O)[O-])o1)Nc1ccccc1,17.3%
18,O=C(NCc1ccccc1)C(=O)Nc1cccc(Cl)c1,10.3%
19,O=c1nc(N/N=C/c2c(O)ccc3ccccc23)cn[nH]1,44%
20,COc1ccccc1N1CCN(/N=C(\C)c2ccncc2)CC1,14.9%
21,COc1cc(C(=O)Nc2ncc(Cc3cccc4ccccc34)s2)cc(OC)c1OC,28.8%
